From the supplement of paper PMC10338343
± gives the standard deviation. Whole data set: some 5,500 sequences, median “pre-steady-state target cleavage rate” near 0.1, cut for the highest 2% near 0.64. The entries are a selection whose mix differs from that of the whole data set.

system: MIWI (PIWIL1) piRISC loaded with piRNA #2 (30 nt); assay: pre-steady-state target cleavage rate (min^-1); MIWI and MILI are mouse PIWI proteins and EfPiwi is from a freshwater sponge; tags in brackets are library labels; higher = faster piRNA-guided slicing of the target; details: guide: piRNA #2 5'p-UUAGGUAACCCAGUAGAUCCAGAGGAAUUC; auxiliary factor: 500 nM mouse GTSF1
Summary of the method: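 The pre-steady-state cleavage rate was calculated from a burst-and-steady-state fit. Data came from Cleave-'n-Seq, in which […] transcribed, DNA-blocked target RNA library was mixed with 1 nM active affinity-purified piRISC carrying one synthetic guide, with or without 500 nM GTSF1 partner protein, in HEPES–potassium acetate buffer at 33 °C for 0–8 or 0–960 min. Uncleaved targets were sequenced and normalised to depth and to weakly complementary targets, three trials were pooled, and k3 was capped at 0.0001 min^-1.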

| Sequence | pre-steady-state target cleavage rate |
| --- | --- |
| CUUAUCCUCUGGAUCUACUGGGUUACCGUAA | 0.344 ± 0.063 |
| CUUAACCUCUCGAUCUACUGGGUUAGCUAA | 0.14 ± 0.017 |
| CUUAACGUCUGGAACUACUGGGUUACCUAA | 0.329 ± 0.029 |
| CUUAAGCUCUCGAUCUACUGGGUUACCAAA | 0.189 ± 0.018 |
| CUUAACCCCUGGAUCUACUGGGUUACCUAA | 0.4 ± 0.031 |
| GAAUUCCUCUGGAUCAAGUGGGUUACCUAA | 0.00675 ± 0.0032 |
| CUUAAGGACUGGAUCUACUGGGUUCACCUAA | 0.0717 ± 0.032 |
| CUAUUCCUGUGGAUCUUCUGGGUUACCUAA | 0.342 ± 0.057 |
| CUUAAGGUCUGGAUCUACUGCGUUACCUAA | 0.338 ± 0.048 |
| CUAUUCCUCUGGAUCUACCGGGUUACCUAA | 0.159 ± 0.018 |
| CAAAUCCUGUGGAUCUACUGGGUUACCUAA | 0.339 ± 0.042 |
| CAAUUCCUCUGGAUCUACUCGGUUUCCUAA | 0.0763 ± 0.028 |
| GAAUUCCUGAGGAUCUACUGGGUUACCUAA | 0.307 ± 0.029 |
| GAAUUCCUCUGCAUGUACUGGGUUACCUAA | 0.444 ± 0.039 |
| GAAUUCCUCUGGAUCUUGUGGGUUACCUAA | 0.0044 ± 0.0032 |
| CUUAAGGAGACCAUCUACUGUGUUACCUAA | 0.00683 ± 0.0027 |
| GAAUUCCUCUGCAUCUACUGGGUUAGCUAA | 0.398 ± 0.041 |
| CUUUUCCUCUGGUUCUACUGGGUUACCUUA | 0.254 ± 0.041 |
| GAAUUCCUCUGGAUCUACUGGGAUUACCUAA | 0.184 ± 0.034 |
| CUUUACCUCUGGAUCUACUGGGAUACCUAA | 0.234 ± 0.025 |
| CAAAUCGUCUGGAUCUACUGGGUUACCUAA | 0.383 ± 0.06 |
| CUUAUCCUCUGGAUCUAGUGCGUUACCUAA | 0.0645 ± 0.0086 |
| CUUAAGCUCUGGAGCUACUGGGUUACCUAA | 0.191 ± 0.026 |

| Sequence | pre-steady-state target cleavage rate |
| --- | --- |
| CUUUUCCUCUGGAUCUACUGGGUUACCUUA | 0.316 ± 0.05 |
| GAAUUCCUCUGGAUCUACAGGGAUACCUAA | 0.125 ± 0.018 |
| CUAUUCCUCUGGAUCUAGUGCGUUACCUAA | 0.0719 ± 0.012 |
| CUAUUCCUCAGGAUCUACUCGGUUACCUAA | 0.0875 ± 0.019 |
| CAAUUCGUGUGGAUCUACUGGGUUACCUAA | 0.485 ± 0.037 |
| CUUAAGCUCUGGAUCUACAGGGUUACGUAA | 0.0869 ± 0.0095 |
| CAAUUCCUCUGGAUGUACUGGCUUACCUAA | 0.09 ± 0.026 |
| CUUAAGGAGAGGAUCUACUGGGUUACCUA | 0.0163 ± 0.0068 |
| CUUAAGGUCUGGAUCUACUGGUUUACCUAA | 0.136 ± 0.019 |
| GAAUUCCUCUGGAUCUACUGGGCUACCUAA | 0.116 ± 0.021 |
| CAAUUCCUCUGGAUCUACUGGGUUAUCCUAA | 0.618 ± 0.071 |
| GAAUUCCUCUGGAUCUACUGGGAAUCCUAA | 0.121 ± 0.039 |
| CUUAUCCUCAGGAUCAACUGGGUUACCUAA | 0.422 ± 0.052 |
| CUAUUCCUCUGGAUCUAUGGGUUACCUAA | 0.00989 ± 0.0029 |
| CUUAAGGUCUGGAUGUACUGGGUUACCUAA | 0.168 ± 0.052 |
| GAAUUCCUCAGGAUCUACAGGGUUACCUAA | 0.295 ± 0.031 |
| CUAUUCCUCUGGAUCUACUGGGAUAGCUAA | 0.229 ± 0.053 |
| CUUAAGGAGUGGAUCUACUGGGUUACCUCA | 0.0927 ± 0.027 |
| CAAUUCCUCUGGAUCUACUGGGUUACCCUAA | 0.3 ± 0.083 |
| CUUUUCCUCUGCAUCUACUGGGUAACCUAA | 0.169 ± 0.018 |
| CUUAAGGACUGGAUCUACUGGGUUACCUUAA | 0.134 ± 0.05 |
| CUUAAGGACUGGUUCUACUGGGUUACGUAA | 0.212 ± 0.076 |
| CUUAACCUCUGGGUCUACUGGGUUACCUAA | 0.317 ± 0.033 |

| Sequence | pre-steady-state target cleavage rate |
| --- | --- |
| CUUUUGCUCUGGAACUACUGGGUUACCUAA | 0.248 ± 0.031 |
| CAAUUCCACUGCAUCUACUGGGUUACCUAA | 0.459 ± 0.034 |
| CUUUUCCUCUCGAUCUAGUGGGUUACCUAA | 0.311 ± 0.024 |
| CAUAACCUCUGGAUCUACUGGGUUACCUAA | 0.234 ± 0.033 |
| GAAAUCCUCAGGAUCUACUGGGUUACCUAA | 0.446 ± 0.051 |
| CAAAUCCUCUGGAUGUACUGGGUUACCUAA | 0.515 ± 0.048 |
| CUUAAGGAGACCUUCUACUGCGUUACCUAA | 0.00369 ± 0.0035 |
| CUAUCCCUCUGGAUCUACUGGGUUACCUAA | 0.352 ± 0.045 |
| CUUUUCCUCUGGAUCUACUGGGAAACCUAA | 0.25 ± 0.045 |
| CUUUUCCUCUGGAUCAACUGGGUUACCUAA | 0.453 ± 0.049 |
| CUUAUCCUGUGCAUCUACUGGGUUACCUAA | 0.264 ± 0.022 |
| GAAUUCGUGUGGAUCUACUGGGUUACCUAA | 0.476 ± 0.037 |
| CUUUUCCACUGGUUCUACUGGGUUACCUAA | 0.446 ± 0.03 |
| CAAUUCCUGUGGAUCUACUGGGAUACCUAA | 0.344 ± 0.05 |
| CUUUUCCUCUGGAUCUACUGCGAUACCUAA | 0.216 ± 0.036 |
| CUUAACCUGUGGAUCUACAGGGUUACCUAA | 0.271 ± 0.021 |
| CUUAUCCUCUGGAUCUACUGCGUUACGUAA | 0.411 ± 0.048 |
| CUUAACCUCUGAAUCUACUGGGUUACCUAA | 0.158 ± 0.019 |
| CUUAAGGUCAGGAUCUACUGGGAUACCUAA | 0.00826 ± 0.0056 |
| CUUUUGCUCAGGAUCUACUGGGUUACCUAA | 0.432 ± 0.042 |
| CUUAACCUCUGGAUCUACUGGGUUACAUAA | 0.6 ± 0.034 |
| CAUUUCCUCUGGAACUACUGGGUUACCUAA | 0.612 ± 0.044 |
| CUUAUCCUCUGGAUCUAGUGGGUUACCUUA | 0.135 ± 0.02 |

| Sequence | pre-steady-state target cleavage rate |
| --- | --- |
| CUAUUCCUCUGGUUCUACUGGCUUACCUAA | 0.155 ± 0.016 |
| GAAUUCCUCUGGAUCUACUGGCUUACCAAA | 0.1 ± 0.03 |
| CUAUUCCUCUGGAUCUACUGGGUCUACCUAA | 0.493 ± 0.044 |
| CUUAAGCUCUGGAUCGUACUGGGUUACCUAA | 0.00549 ± 0.0047 |
| CUAUUCCUCUGGAUCUACUGGGUUACCGUAA | 0.323 ± 0.046 |
| CUUAAGCUCUGGAUCUACUGGGUUACGAUA | 0.0839 ± 0.013 |
| CAAUUCCUCUGGAUCUACUGUGUUACCUAA | 0.751 ± 0.075 |
| CUUUUCCUCUGGUACUACUGGGUUACCUAA | 0.385 ± 0.051 |
| CUUAUCCACUGGAUCUUCUGGGUUACCUAA | 0.41 ± 0.054 |
| CAUUUCCUCUGCAUCUACUGGGUUACCUAA | 0.509 ± 0.04 |
| GAAUUCCUCUGGAUGUAGUGGGUUACCUAA | 0.0963 ± 0.016 |
| CUAUUCCUCUGGACCUACUGGGUUACCUAA | 0.139 ± 0.02 |
| CUUAUCCCCUGGAUCUACUGGGUUACCUAA | 0.423 ± 0.024 |
| CUUAUCCUCUGGAUCCACUGGGUUACCUAA | 0.248 ± 0.038 |
| CUUAAGCUCUCGAUCUACUGGGUUACGUAA | 0.516 ± 0.034 |
| CUUAAGGUCUGGAUCAACUGGGUUUCCUAA | 0.0708 ± 0.014 |
| CUUUUCCUGUGGAUCUACUGGGAUACCUAA | 0.28 ± 0.026 |
| CUUAAGCUCUGGAUCUACUGGGUUUCCAAA | 0.0329 ± 0.009 |
| CUUAACCUCUGGCAUCUACUGGGUUACCUAA | 0.117 ± 0.028 |
| CUUAACCUCUGGAUCUACUCGGUUACGUAA | 0.0848 ± 0.023 |
| CUUUUCCACUGGAUCUUCUGGGUUACCUAA | 0.371 ± 0.038 |
| CUUUUCCUCUGGAUCUAUUGGGUUACCUAA | 0.271 ± 0.036 |
| CAAUUCCUCUGGAUCUACUGGGUAUCCUAA | 0.196 ± 0.045 |
